According to the supplement of paper PMC12217912:
Some of the results follow. The full chains were built here from the parent and the listed change. Values near 0.05 are background.

B1: TEV protease; numbered along this chain (parent)
chain: MGESLFKGPRDYNPISSSICHLTNESDGHTTSLYGIGFGPFIITNKHLFRRNNGTLVVQSLHGVFKVKDTTTLQQHLVDGRDMIIIRMPKDFPPFPQKLKFREPQREERICLVTTNFQTKSMSSMVSDTSCTFPSGDGIFWKHWIQTKDGQCGSPLVSTRDGFIVGIHSASNFTNTNNYFTSVPKNFMELLTNQEAQQWVSGWRLNADSVLWGGHKVFMVKPEEPFQPVKEATQL

Variants of: B1
Test: raw area under fraction-flipped curve 0-4 h after induction (AUC4h, not background-subtracted), DNA-recorder readout of cleavage of the substrate (dimensionless); higher = more cleavage of the substrate by the protease variant
Settings: temperature: 34 °C; time window: 0-4 h after rhamnose induction
Method: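 In vivo DNA recorder in E. coli TOP10(DE3) ΔrhaA at 34 °C. Each TEVp single-site mutant (parent TEVp 0) is paired with a single-site variant of the 7-mer TEVs (canonical ENLYFQ|S). The substrate sits between flexible linkers in a Bxb1-sfGFP-TEVs-SsrA fusion, so cleavage stabilises Bxb1 and speeds flipping of a recombination array, read by NGS. The value is the raw area under the fraction-flipped curve over 0-4 h after rhamnose induction (AUC4h), with ≥20 reads per time point. It is not background-subtracted; inactive controls average about 0.047.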
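Also: Bxb1 expression induced with 0.2% (w/v) L-rhamnose at OD600 near 0.5, cultures sampled hourly, flipped fraction per protease–substrate barcode pair counted by paired-end Illumina sequencing.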

MGESLFKGPRDYNPISSSICHLTNESDGHTTSLYGIGFGPFIITNKHLFRRNNGTLVVQSLTGVFKVKDTTTLQQHLVDGRDMIIIRMPKDFPPFPQKLKFREPQREERICLVTTNFQTKSMSSMVSDTSCTFPSGDGIFWKHWIQTKDGQCGSPLVSTRDGFIVGIHSASNFTNTNNYFTSVPKNFMELLTNQEAQQWVSGWRLNADSVLWGGHKVFMVKPEEPFQPVKEATQL [H62T]
area with substrate ENAYFQS: 0.0556 | area with substrate ENCYFQS: 0.0767 | area with substrate ENDYFQS: 0.0649 | area with substrate ENHYFQS: 0.0649 | area with substrate ENKYFQS: 0.0455 | area with substrate ENMYFQS: 0.0752 | area with substrate ENNYFQS: 0.0617 | area with substrate ENPYFQS: 0.0588 | area with substrate ENQYFQS: 0.0674 | area with substrate ENSYFQS: 0.0621 | area with substrate ENTYFQS: 0.0606 | area with substrate ENVYFQS: 0.0769 | area with substrate ENWYFQS: 0.0376

MGESLFKGPRDYNPISSSICHLTNESDGHTTSLYGIGFGPFIITNKHLFRRNNGTLVVQSLHPVFKVKDTTTLQQHLVDGRDMIIIRMPKDFPPFPQKLKFREPQREERICLVTTNFQTKSMSSMVSDTSCTFPSGDGIFWKHWIQTKDGQCGSPLVSTRDGFIVGIHSASNFTNTNNYFTSVPKNFMELLTNQEAQQWVSGWRLNADSVLWGGHKVFMVKPEEPFQPVKEATQL [G63P]
area with substrate ENAYFQS: 0.0451 | area with substrate ENDYFQS: 0.0635 | area with substrate ENEYFQS: 0.0593 | area with substrate ENGYFQS: 0.0194 | area with substrate ENHYFQS: 0.0425 | area with substrate ENMYFQS: 0.0672 | area with substrate ENNYFQS: 0.0536 | area with substrate ENPYFQS: 0.0482 | area with substrate ENQYFQS: 0.0451 | area with substrate ENRYFQS: 0.0596 | area with substrate ENTYFQS: 0.0507 | area with substrate ENVYFQS: 0.0502 | area with substrate ENWYFQS: 0.0532 | area with substrate ENYYFQS: 0.0733

MGESLFKGPRDYNPISSSICHLTNESDGHTTSLYGIGFGPFIITNKHLFRRNNGTLVVQSLHGVCKVKDTTTLQQHLVDGRDMIIIRMPKDFPPFPQKLKFREPQREERICLVTTNFQTKSMSSMVSDTSCTFPSGDGIFWKHWIQTKDGQCGSPLVSTRDGFIVGIHSASNFTNTNNYFTSVPKNFMELLTNQEAQQWVSGWRLNADSVLWGGHKVFMVKPEEPFQPVKEATQL [F65C]
area with substrate ENAYFQS: 0.0629 | area with substrate ENCYFQS: 0.0753 | area with substrate ENDYFQS: 0.0623 | area with substrate ENEYFQS: 0.0366 | area with substrate ENGYFQS: 0.0417 | area with substrate ENHYFQS: 0.0634 | area with substrate ENIYFQS: 0.101 | area with substrate ENKYFQS: 0.0632 | area with substrate ENNYFQS: 0.0648 | area with substrate ENPYFQS: 0.0659 | area with substrate ENQYFQS: 0.0578 | area with substrate ENRYFQS: 0.0655 | area with substrate ENSYFQS: 0.0701

MGESLFKGPRDYNPISSSICHLTNESDGHTTSLYGIGFGPFIITNKHLFRRNNGTLVVQSLHGVKKVKDTTTLQQHLVDGRDMIIIRMPKDFPPFPQKLKFREPQREERICLVTTNFQTKSMSSMVSDTSCTFPSGDGIFWKHWIQTKDGQCGSPLVSTRDGFIVGIHSASNFTNTNNYFTSVPKNFMELLTNQEAQQWVSGWRLNADSVLWGGHKVFMVKPEEPFQPVKEATQL [F65K]
area with substrate ENAYFQS: 0.0357 | area with substrate ENCYFQS: 0.0577 | area with substrate ENDYFQS: 0.0758 | area with substrate ENEYFQS: 0.052 | area with substrate ENFYFQS: 0.0666 | area with substrate ENHYFQS: 0.06 | area with substrate ENMYFQS: 0.0824 | area with substrate ENPYFQS: 0.0475 | area with substrate ENQYFQS: 0.0598 | area with substrate ENSYFQS: 0.0622 | area with substrate ENTYFQS: 0.0454 | area with substrate ENVYFQS: 0.0782 | area with substrate ENYYFQS: 0.0518

MGESLFKGPRDYNPISSSICHLTNESDGHTTSLYGIGFGPFIITNKHLFRRNNGTLVVQSLHGVFKVSDTTTLQQHLVDGRDMIIIRMPKDFPPFPQKLKFREPQREERICLVTTNFQTKSMSSMVSDTSCTFPSGDGIFWKHWIQTKDGQCGSPLVSTRDGFIVGIHSASNFTNTNNYFTSVPKNFMELLTNQEAQQWVSGWRLNADSVLWGGHKVFMVKPEEPFQPVKEATQL [K68S]
area with substrate ENAYFQS: 0.0695 | area with substrate ENCYFQS: 0.0589 | area with substrate ENDYFQS: 0.0657 | area with substrate ENGYFQS: 0.0663 | area with substrate ENHYFQS: 0.054 | area with substrate ENIYFQS: 0.109 | area with substrate ENNYFQS: 0.0773 | area with substrate ENPYFQS: 0.0655 | area with substrate ENQYFQS: 0.0634 | area with substrate ENRYFQS: 0.0513 | area with substrate ENSYFQS: 0.0553 | area with substrate ENTYFQS: 0.0676 | area with substrate ENVYFQS: 0.0679 | area with substrate ENYYFQS: 0.065

MGESLFKGPRDYNPISSSICHLTNESDGHTTSLYGIGFGPFIITNKHLFRRNNGTLVVQSLHGVFKVKVTTTLQQHLVDGRDMIIIRMPKDFPPFPQKLKFREPQREERICLVTTNFQTKSMSSMVSDTSCTFPSGDGIFWKHWIQTKDGQCGSPLVSTRDGFIVGIHSASNFTNTNNYFTSVPKNFMELLTNQEAQQWVSGWRLNADSVLWGGHKVFMVKPEEPFQPVKEATQL [D69V]
area with substrate ENAYFQS: 0.0516 | area with substrate ENCYFQS: 0.0643 | area with substrate ENDYFQS: 0.0547 | area with substrate ENEYFQS: 0.0595 | area with substrate ENFYFQS: 0.0504 | area with substrate ENHYFQS: 0.0395 | area with substrate ENIYFQS: 0.0798 | area with substrate ENNYFQS: 0.066 | area with substrate ENQYFQS: 0.0571 | area with substrate ENRYFQS: 0.0413 | area with substrate ENSYFQS: 0.0476 | area with substrate ENVYFQS: 0.0686 | area with substrate ENYYFQS: 0.0461

MGESLFKGPRDYNPISSSICHLTNESDGHTTSLYGIGFGPFIITNKHLFRRNNGTLVVQSLHGVFKVKDCTTLQQHLVDGRDMIIIRMPKDFPPFPQKLKFREPQREERICLVTTNFQTKSMSSMVSDTSCTFPSGDGIFWKHWIQTKDGQCGSPLVSTRDGFIVGIHSASNFTNTNNYFTSVPKNFMELLTNQEAQQWVSGWRLNADSVLWGGHKVFMVKPEEPFQPVKEATQL [T70C]
area with substrate ENAYFQS: 0.0458 | area with substrate ENCYFQS: 0.059 | area with substrate ENDYFQS: 0.0618 | area with substrate ENEYFQS: 0.059 | area with substrate ENFYFQS: 0.0434 | area with substrate ENGYFQS: 0.0649 | area with substrate ENKYFQS: 0.0391 | area with substrate ENQYFQS: 0.0624 | area with substrate ENRYFQS: 0.0584 | area with substrate ENVYFQS: 0.0647

MGESLFKGPRDYNPISSSICHLTNESDGHTTSLYGIGFGPFIITNKHLFRRNNGTLVVQSLHGVFKVKDTSTLQQHLVDGRDMIIIRMPKDFPPFPQKLKFREPQREERICLVTTNFQTKSMSSMVSDTSCTFPSGDGIFWKHWIQTKDGQCGSPLVSTRDGFIVGIHSASNFTNTNNYFTSVPKNFMELLTNQEAQQWVSGWRLNADSVLWGGHKVFMVKPEEPFQPVKEATQL [T71S]
area with substrate ENAYFQS: 0.0721 | area with substrate ENCYFQS: 0.0772 | area with substrate ENGYFQS: 0.054 | area with substrate ENHYFQS: 0.0711 | area with substrate ENQYFQS: 0.0549 | area with substrate ENSYFQS: 0.0672 | area with substrate ENVYFQS: 0.068

MGESLFKGPRDYNPISSSICHLTNESDGHTTSLYGIGFGPFIITNKHLFRRNNGTLVVQSLHGVFKVKDTTILQQHLVDGRDMIIIRMPKDFPPFPQKLKFREPQREERICLVTTNFQTKSMSSMVSDTSCTFPSGDGIFWKHWIQTKDGQCGSPLVSTRDGFIVGIHSASNFTNTNNYFTSVPKNFMELLTNQEAQQWVSGWRLNADSVLWGGHKVFMVKPEEPFQPVKEATQL [T72I]
area with substrate ENAYFQS: 0.0726 | area with substrate ENEYFQS: 0.0617 | area with substrate ENFYFQS: 0.0465 | area with substrate ENGYFQS: 0.0949 | area with substrate ENHYFQS: 0.101 | area with substrate ENNYFQS: 0.0579 | area with substrate ENPYFQS: 0.0448 | area with substrate ENQYFQS: 0.0551

MGESLFKGPRDYNPISSSICHLTNESDGHTTSLYGIGFGPFIITNKHLFRRNNGTLVVQSLHGVFKVKDTTLLQQHLVDGRDMIIIRMPKDFPPFPQKLKFREPQREERICLVTTNFQTKSMSSMVSDTSCTFPSGDGIFWKHWIQTKDGQCGSPLVSTRDGFIVGIHSASNFTNTNNYFTSVPKNFMELLTNQEAQQWVSGWRLNADSVLWGGHKVFMVKPEEPFQPVKEATQL [T72L]
area with substrate ENAYFQS: 0.0488 | area with substrate ENCYFQS: 0.0739 | area with substrate ENGYFQS: 0.062 | area with substrate ENMYFQS: 0.095 | area with substrate ENNYFQS: 0.0592 | area with substrate ENPYFQS: 0.0566 | area with substrate ENRYFQS: 0.0742 | area with substrate ENSYFQS: 0.0609 | area with substrate ENVYFQS: 0.0734 | area with substrate ENWYFQS: 0.0426 | area with substrate ENYYFQS: 0.0991
